From the RNAGym collection of RNA variant scans (doi:10.1101/gad.245936.114)
This sample is rich in variants without activity.

B1: tRNA (parent)
chain: CUCUCGGUAGCCAAGUUGGUUUAAGGCGCAAGACUUUAAUUUAUCACUACGAAAUCUUGAGAUCGGGCGUUCGACUCGCCCCCGGGAGAUUUUUUCCUCGAGCAA

Variants of: B1
Test: nonsense suppression (GFP-seq) (ratio to wild type); higher = more function; SUP4oc tRNA, yeast GFP reporter sort-seq
How it was run: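 Yeast carrying genome-integrated SUP4oc tRNA variants from a library with ~3% random mutations were grown in raffinose/galactose medium with 80 mg/L adenine. Each strain also carried a galactose-driven GFP ochre reporter and RFP. Cells were sorted into GFP/RFP bins, and each bin was Illumina-sequenced (phred ≥30). Nonsense suppression (GFPSEQ) is the bin median GFP/RFP, weighted by each variant's estimated cell share per bin, relative to wild-type SUP4oc; variants needed ≥100 reads and ≥30 cells.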

Row | Variant | nonsense suppression
1 | A9U G73A G88A | ≤ 0.026
2 | G10U C64G | ≤ 0.026
3 | G10U C64A | ≤ 0.026
4 | G10A C75A G85C | ≤ 0.026
5 | G10U G19U | ≤ 0.026
6 | G10U G19C | ≤ 0.026
7 | A9U A33G A74U | ≤ 0.026
8 | A9U U20G A31C | ≤ 0.026
9 | A9U C11U A74G | ≤ 0.026
10 | G10A C11U C64U | ≤ 0.026
11 | G10U U57C G73A G84U | ≤ 0.026
12 | G10U U57A U71A | ≤ 0.026
13 | G10C U35G U58G G59A C68G A74C | ≤ 0.026
14 | G10C G26A G65A A87U | ≤ 0.026
15 | A9U G18A G85C | ≤ 0.026
16 | G10C U71A | ≤ 0.026
17 | G10A C11G A31C C68U | ≤ 0.026
18 | G10U U21A A74C | ≤ 0.026
19 | A9U C11A A14G C56G G69A U76C | ≤ 0.026
20 | G10C C11U G26U G66U | ≤ 0.026
21 | G10A U20A G26A C34A G86C | ≤ 0.026

Row | Variant | nonsense suppression
22 | G10U A31G A33G | ≤ 0.026
23 | A9U U57A G69A C80U | ≤ 0.026
24 | A9U C27U A54C A62C | ≤ 0.026
25 | G10A G15A G85C | ≤ 0.026
26 | G10A G73C C79G G85C G86A | ≤ 0.026
27 | G10C A13G G15A U57C | ≤ 0.026
28 | G10U A54C | ≤ 0.026
29 | G10U C34G | ≤ 0.026
30 | G10C A14C A33C C68A G78U | ≤ 0.026
31 | G10C G32A | ≤ 0.026
32 | A9U U55A U76A | ≤ 0.026
33 | G10C C56A | ≤ 0.026
34 | A9U G15U U16G A31U C34U C75G C82A | ≤ 0.026
35 | G10C A14U G66C | ≤ 0.026
36 | G10C G73C A87G | ≤ 0.026
37 | G10C G59U G66A G85U | ≤ 0.026
38 | G10C G26C C29A | ≤ 0.026
39 | A9U A31G G32U U63G | ≤ 0.026
40 | G10A U16G A87U | ≤ 0.026
41 | G10U A24U A60G G78A | ≤ 0.026
42 | G10U G32U | ≤ 0.026

Row | Variant | nonsense suppression
43 | A9U U21C A33G | ≤ 0.026
44 | G10U U20A | ≤ 0.026
45 | G10U U20G | ≤ 0.026
46 | G10U U35G A89C | ≤ 0.026
47 | G10A G66A | ≤ 0.026
48 | G10C G25C G61C U71A | ≤ 0.026
49 | G10A A31G | ≤ 0.026
50 | G10A C27U | ≤ 0.026
51 | G10A C82A G88A | ≤ 0.026
52 | G10A A54C | 0.0309
53 | G10A A54G | ≤ 0.026
54 | A9U A33G C79U C83U | ≤ 0.026
55 | G10U G19A C68G | ≤ 0.026
56 | G10U A30G C77U | ≤ 0.026
57 | A9U C11U | ≤ 0.026
58 | A9U G66A | 0.0305
59 | A9U G67A | ≤ 0.026
60 | A9U G67U | ≤ 0.026
61 | G10C G19U C64G | ≤ 0.026
62 | G10U U58C | ≤ 0.026
63 | G10C A30C C81A G86A | ≤ 0.026

Row | Variant | nonsense suppression
64 | A9U A89U | ≤ 0.026
65 | G10C G67U G84U | ≤ 0.026
66 | G10A U58A A62G U70A | ≤ 0.026
67 | A9U G10A G69U C83A | ≤ 0.026
68 | G10U U57A G67A C77G | ≤ 0.026
69 | A9U G85A A89C | ≤ 0.026
70 | G10A C77U G86U | ≤ 0.026
71 | G10U A31C U57C | ≤ 0.026
72 | G10A U21G G25C G67U G78A C82A G86A | ≤ 0.026
73 | G10C C11A G18C U57C G78U | ≤ 0.026
74 | G10A A31G U55G G61C | ≤ 0.026
75 | G10U A13U U21A | ≤ 0.026
76 | G10A G61U | ≤ 0.026
77 | G10C U35A G66C G85U | ≤ 0.026
78 | G10U A23G C34G A62C G69C | ≤ 0.026
79 | G10U U76G C81U | ≤ 0.026
80 | G10C G15U C27U G66U U70G U71G | ≤ 0.026
81 | G10U G66U G85A | ≤ 0.026
82 | G10A C64G | ≤ 0.026
83 | G10U U21C A74U | ≤ 0.026
84 | G10U C27A G65U G66A | ≤ 0.026
